Among the data in patent US20110319597A1 (CAPHALON AUSTRALIA, published 2011) are Standardized EC50, L929 neutralization assay (5-point) values, retold here.

Sequences and labels used below:
B1: TNFα dAb Fc variant S9H (Fc fusion, name in Kabat numbering)
chain: DIQMTQSPHSLSASVGDRVTITCRASQAIDSYLHWYQQKPGKAPKLLIYSASNLETGVPSRFSGSGSGTDFTLTISSLLPEDFATYYCQQVVWRPFTFGQGTKVEIKRV[human IgG1 Fc with changes left out]
B2: TNFα dAb Fc variant S12Q (Fc fusion, name in Kabat numbering)
chain: DIQMTQSPSSLQASVGDRVTITCRASQAIDSYLHWYQQKPGKAPKLLIYSASNLETGVPSRFSGSGSGTDFTLTISSLLPEDFATYYCQQVVWRPFTFGQGTKVEIKRV[human IgG1 Fc with changes left out]
B3: TNFα dAb Fc variant S12Y (Fc fusion, name in Kabat numbering)
chain: DIQMTQSPSSLYASVGDRVTITCRASQAIDSYLHWYQQKPGKAPKLLIYSASNLETGVPSRFSGSGSGTDFTLTISSLLPEDFATYYCQQVVWRPFTFGQGTKVEIKRV[human IgG1 Fc with changes left out]
B4: TNFα dAb Fc variant S12H (Fc fusion, name in Kabat numbering)
chain: DIQMTQSPSSLHASVGDRVTITCRASQAIDSYLHWYQQKPGKAPKLLIYSASNLETGVPSRFSGSGSGTDFTLTISSLLPEDFATYYCQQVVWRPFTFGQGTKVEIKRV[human IgG1 Fc with changes left out]
B5: TNFα dAb Fc variant S10P (Fc fusion, name in Kabat numbering)
chain: DIQMTQSPSPLSASVGDRVTITCRASQAIDSYLHWYQQKPGKAPKLLIYSASNLETGVPSRFSGSGSGTDFTLTISSLLPEDFATYYCQQVVWRPFTFGQGTKVEIKRV[human IgG1 Fc with changes left out]
B6: TNFα dAb Fc variant S14A (Fc fusion, name in Kabat numbering)
chain: DIQMTQSPSSLSAAVGDRVTITCRASQAIDSYLHWYQQKPGKAPKLLIYSASNLETGVPSRFSGSGSGTDFTLTISSLLPEDFATYYCQQVVWRPFTFGQGTKVEIKRV[human IgG1 Fc with changes left out]
B7: TNFα dAb Fc variant S12L (Fc fusion, name in Kabat numbering)
chain: DIQMTQSPSSLLASVGDRVTITCRASQAIDSYLHWYQQKPGKAPKLLIYSASNLETGVPSRFSGSGSGTDFTLTISSLLPEDFATYYCQQVVWRPFTFGQGTKVEIKRV[human IgG1 Fc with changes left out]
B8: TNFα dAb Fc variant S10Y (Fc fusion, name in Kabat numbering)
chain: DIQMTQSPSYLSASVGDRVTITCRASQAIDSYLHWYQQKPGKAPKLLIYSASNLETGVPSRFSGSGSGTDFTLTISSLLPEDFATYYCQQVVWRPFTFGQGTKVEIKRV[human IgG1 Fc with changes left out]
B9: TNFα dAb Fc variant S10Q (Fc fusion, name in Kabat numbering)
chain: DIQMTQSPSQLSASVGDRVTITCRASQAIDSYLHWYQQKPGKAPKLLIYSASNLETGVPSRFSGSGSGTDFTLTISSLLPEDFATYYCQQVVWRPFTFGQGTKVEIKRV[human IgG1 Fc with changes left out]
B10: TNFα dAb Fc variant S10L (Fc fusion, name in Kabat numbering)
chain: DIQMTQSPSLLSASVGDRVTITCRASQAIDSYLHWYQQKPGKAPKLLIYSASNLETGVPSRFSGSGSGTDFTLTISSLLPEDFATYYCQQVVWRPFTFGQGTKVEIKRV[human IgG1 Fc with changes left out]
B11: TNFα dAb Fc variant S12D (Fc fusion, name in Kabat numbering)
chain: DIQMTQSPSSLDASVGDRVTITCRASQAIDSYLHWYQQKPGKAPKLLIYSASNLETGVPSRFSGSGSGTDFTLTISSLLPEDFATYYCQQVVWRPFTFGQGTKVEIKRV[human IgG1 Fc with changes left out]
B12: TNFα dAb Fc variant S10H (Fc fusion, name in Kabat numbering)
chain: DIQMTQSPSHLSASVGDRVTITCRASQAIDSYLHWYQQKPGKAPKLLIYSASNLETGVPSRFSGSGSGTDFTLTISSLLPEDFATYYCQQVVWRPFTFGQGTKVEIKRV[human IgG1 Fc with changes left out]
B13: TNFα dAb Fc variant S12P (Fc fusion, name in Kabat numbering)
chain: DIQMTQSPSSLPASVGDRVTITCRASQAIDSYLHWYQQKPGKAPKLLIYSASNLETGVPSRFSGSGSGTDFTLTISSLLPEDFATYYCQQVVWRPFTFGQGTKVEIKRV[human IgG1 Fc with changes left out]
B14: TNFα dAb Fc variant L11Y (Fc fusion, name in Kabat numbering)
chain: DIQMTQSPSSYSASVGDRVTITCRASQAIDSYLHWYQQKPGKAPKLLIYSASNLETGVPSRFSGSGSGTDFTLTISSLLPEDFATYYCQQVVWRPFTFGQGTKVEIKRV[human IgG1 Fc with changes left out]
B15: TNFα dAb Fc variant S14D (Fc fusion, name in Kabat numbering)
chain: DIQMTQSPSSLSADVGDRVTITCRASQAIDSYLHWYQQKPGKAPKLLIYSASNLETGVPSRFSGSGSGTDFTLTISSLLPEDFATYYCQQVVWRPFTFGQGTKVEIKRV[human IgG1 Fc with changes left out]
B16: TNFα dAb Fc variant S9P (Fc fusion, name in Kabat numbering)
chain: DIQMTQSPPSLSASVGDRVTITCRASQAIDSYLHWYQQKPGKAPKLLIYSASNLETGVPSRFSGSGSGTDFTLTISSLLPEDFATYYCQQVVWRPFTFGQGTKVEIKRV[human IgG1 Fc with changes left out]
B17: TNFα dAb Fc variant S14L (Fc fusion, name in Kabat numbering)
chain: DIQMTQSPSSLSALVGDRVTITCRASQAIDSYLHWYQQKPGKAPKLLIYSASNLETGVPSRFSGSGSGTDFTLTISSLLPEDFATYYCQQVVWRPFTFGQGTKVEIKRV[human IgG1 Fc with changes left out]
B18: TNFα dAb Fc variant L11Q (Fc fusion, name in Kabat numbering)
chain: DIQMTQSPSSQSASVGDRVTITCRASQAIDSYLHWYQQKPGKAPKLLIYSASNLETGVPSRFSGSGSGTDFTLTISSLLPEDFATYYCQQVVWRPFTFGQGTKVEIKRV[human IgG1 Fc with changes left out]
B19: TNFα dAb Fc variant L11K (Fc fusion, name in Kabat numbering)
chain: DIQMTQSPSSKSASVGDRVTITCRASQAIDSYLHWYQQKPGKAPKLLIYSASNLETGVPSRFSGSGSGTDFTLTISSLLPEDFATYYCQQVVWRPFTFGQGTKVEIKRV[human IgG1 Fc with changes left out]
B20: TNFα dAb Fc variant L11S (Fc fusion, name in Kabat numbering)
chain: DIQMTQSPSSSSASVGDRVTITCRASQAIDSYLHWYQQKPGKAPKLLIYSASNLETGVPSRFSGSGSGTDFTLTISSLLPEDFATYYCQQVVWRPFTFGQGTKVEIKRV[human IgG1 Fc with changes left out]
B21: TNFα dAb Fc variant S10A (Fc fusion, name in Kabat numbering)
chain: DIQMTQSPSALSASVGDRVTITCRASQAIDSYLHWYQQKPGKAPKLLIYSASNLETGVPSRFSGSGSGTDFTLTISSLLPEDFATYYCQQVVWRPFTFGQGTKVEIKRV[human IgG1 Fc with changes left out]
B22: TNFα dAb Fc variant S9K (Fc fusion, name in Kabat numbering)
chain: DIQMTQSPKSLSASVGDRVTITCRASQAIDSYLHWYQQKPGKAPKLLIYSASNLETGVPSRFSGSGSGTDFTLTISSLLPEDFATYYCQQVVWRPFTFGQGTKVEIKRV[human IgG1 Fc with changes left out]
B23: TNFα dAb Fc variant L11A (Fc fusion, name in Kabat numbering)
chain: DIQMTQSPSSASASVGDRVTITCRASQAIDSYLHWYQQKPGKAPKLLIYSASNLETGVPSRFSGSGSGTDFTLTISSLLPEDFATYYCQQVVWRPFTFGQGTKVEIKRV[human IgG1 Fc with changes left out]
B24: TNFα dAb Fc variant L11D (Fc fusion, name in Kabat numbering)
chain: DIQMTQSPSSDSASVGDRVTITCRASQAIDSYLHWYQQKPGKAPKLLIYSASNLETGVPSRFSGSGSGTDFTLTISSLLPEDFATYYCQQVVWRPFTFGQGTKVEIKRV[human IgG1 Fc with changes left out]
B25: TNFα dAb Fc variant S12K (Fc fusion, name in Kabat numbering)
chain: DIQMTQSPSSLKASVGDRVTITCRASQAIDSYLHWYQQKPGKAPKLLIYSASNLETGVPSRFSGSGSGTDFTLTISSLLPEDFATYYCQQVVWRPFTFGQGTKVEIKRV[human IgG1 Fc with changes left out]
B26: TNFα dAb Fc variant S10K (Fc fusion, name in Kabat numbering)
chain: DIQMTQSPSKLSASVGDRVTITCRASQAIDSYLHWYQQKPGKAPKLLIYSASNLETGVPSRFSGSGSGTDFTLTISSLLPEDFATYYCQQVVWRPFTFGQGTKVEIKRV[human IgG1 Fc with changes left out]
B27: TNFα dAb Fc variant S12A (Fc fusion, name in Kabat numbering)
chain: DIQMTQSPSSLAASVGDRVTITCRASQAIDSYLHWYQQKPGKAPKLLIYSASNLETGVPSRFSGSGSGTDFTLTISSLLPEDFATYYCQQVVWRPFTFGQGTKVEIKRV[human IgG1 Fc with changes left out]
B28: TNFα dAb Fc variant S14Y (Fc fusion, name in Kabat numbering)
chain: DIQMTQSPSSLSAYVGDRVTITCRASQAIDSYLHWYQQKPGKAPKLLIYSASNLETGVPSRFSGSGSGTDFTLTISSLLPEDFATYYCQQVVWRPFTFGQGTKVEIKRV[human IgG1 Fc with changes left out]

This assay deals with recombinant human TNFα (human, UniProt P01375 in part). The experiment in a line: cell-based or functional assay.
UniProt P01375, sequence (P01375 77-233 limits assumed): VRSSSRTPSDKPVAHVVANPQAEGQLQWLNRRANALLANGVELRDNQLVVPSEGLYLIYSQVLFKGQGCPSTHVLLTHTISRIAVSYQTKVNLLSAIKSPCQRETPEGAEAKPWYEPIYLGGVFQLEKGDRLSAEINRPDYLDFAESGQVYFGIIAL
Take B1: the Standardized EC50, L929 neutralization assay (5-point) was found to be 1.23 µg/mL.

In the case of B2, the Standardized EC50, L929 neutralization assay (5-point) was 0.822 µg/mL.

Turning to B3, the Standardized EC50, L929 neutralization assay (5-point) amounted to 1.07 µg/mL.

In the case of B4, the Standardized EC50, L929 neutralization assay (5-point) came to 1.44 µg/mL.

Turning to B5, the Standardized EC50, L929 neutralization assay (5-point) came out at 6.59 µg/mL.

Regarding B6, the Standardized EC50, L929 neutralization assay (5-point) is 0.681 µg/mL.

With B7, the Standardized EC50, L929 neutralization assay (5-point) came out at 0.252 µg/mL.

B8: the Standardized EC50, L929 neutralization assay (5-point) turned out to be 1.76 µg/mL.

For B9, the Standardized EC50, L929 neutralization assay (5-point) was determined as 1.42 µg/mL.

Regarding B10, the Standardized EC50, L929 neutralization assay (5-point) was determined as 0.616 µg/mL.

B11: the Standardized EC50, L929 neutralization assay (5-point) was determined as 1.76 µg/mL.

Take B12: the Standardized EC50, L929 neutralization assay (5-point) worked out at 1.28 µg/mL.

B13: the Standardized EC50, L929 neutralization assay (5-point) was 1.35 µg/mL.

With B14, the Standardized EC50, L929 neutralization assay (5-point) came to 2.77 µg/mL.

Take B15: the Standardized EC50, L929 neutralization assay (5-point) turned out to be 2.26 µg/mL.

Consider B16, for which the Standardized EC50, L929 neutralization assay (5-point) turned out to be 1.3 µg/mL.

As to B17, the Standardized EC50, L929 neutralization assay (5-point) was found to be 2.67 µg/mL.

On to B18, for which the Standardized EC50, L929 neutralization assay (5-point) is 1.01 µg/mL.

Turning to B19, the Standardized EC50, L929 neutralization assay (5-point) came out at 9.47 µg/mL.

With B20, the Standardized EC50, L929 neutralization assay (5-point) amounted to 1.64 µg/mL.

With B21, the Standardized EC50, L929 neutralization assay (5-point) is 0.661 µg/mL.

Regarding B22, the Standardized EC50, L929 neutralization assay (5-point) was 1.23 µg/mL.

For B23, the Standardized EC50, L929 neutralization assay (5-point) worked out at 0.912 µg/mL.

For the molecule B24, the Standardized EC50, L929 neutralization assay (5-point) is 10.2 µg/mL.

Take B25: the Standardized EC50, L929 neutralization assay (5-point) is 1.05 µg/mL.

With B26, the Standardized EC50, L929 neutralization assay (5-point) is 2.72 µg/mL.

In the case of B27, the Standardized EC50, L929 neutralization assay (5-point) is 0.796 µg/mL.

Consider B28, for which the Standardized EC50, L929 neutralization assay (5-point) is 1.92 µg/mL.
